In article PMC5496915, “Interactions between LHX3- and ISL1-family LIM-homeodomain transcription factors are conserved in Caenorhabditis elegans” (Scientific Reports, 2017) one finds binding data, which are given here for one molecule.

Results are given in words; binding and its absence hold for the method and conditions named. Some entries that bind do so weakly or less than the wild type.

In assay [1] the target is T1, WT LIM-7LID (LIM interaction domain of LIM-7) (C. elegans).
T1 sequence: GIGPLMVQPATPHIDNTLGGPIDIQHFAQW
In words: two-hybrid; AH109 yeast co-transformed with pGBT9 and pGAD10 plasmids, bait and prey in alternate vector combinations; growth on moderate (-L-W-H + 3-AT) and high (-L-W-H-A) stringency media; 30 °C, 72 h (Figure 2C).

The target in assay [2] is T2, LIM-7LID V353A (C. elegans).
T2 sequence: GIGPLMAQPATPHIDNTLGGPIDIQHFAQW
Put plainly: two-hybrid; alanine mutagenic screen: LIM-7LID constructs in pGBT9, CEH-14_(LIM1+2) in pGAD10; AH109 yeast; growth on moderate (SD -H-L-W + 1 mM 3-AT) / strong (SD -H-L-W-A) selective media at three dilutions; 30 °C, 72 h (Table 2).

Assay [3] concerns the target T3, LIM-7LID I360A (C. elegans).
T3 sequence: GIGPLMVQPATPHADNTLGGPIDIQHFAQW
The description is as above.

The target of assay [4] is T4, LIM-7LID P350A/L351A/M352A/D361A (C. elegans).
T4 sequence: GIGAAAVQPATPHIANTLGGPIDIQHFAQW
The description is as above.

Assay [5] deals with T5, LIM-7LID P350A/L351A (C. elegans).
T5 sequence: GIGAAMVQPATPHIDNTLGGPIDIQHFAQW
The description is as above.

Assay [6] concerns the target T6, LIM-7(P350A/L351A/M352A) (C. elegans).
T6 sequence: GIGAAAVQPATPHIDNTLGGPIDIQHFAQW
Described as above.

Assay [7] addresses T7, LIM-7LID G365A/G366A/P367A (C. elegans).
T7 sequence: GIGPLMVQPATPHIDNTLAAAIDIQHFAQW
The assay is described as above.

Assay [8] addresses T8, LIM-7LID V353A/Q354A/P355A (C. elegans).
T8 sequence: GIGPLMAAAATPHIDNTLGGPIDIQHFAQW
The description is as above.

Assay [9] addresses T9, LIM-7LID M352A (C. elegans).
T9 sequence: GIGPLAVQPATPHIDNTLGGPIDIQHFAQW
Described as above.

In assay [10] the target is T10, LIM-7(H359A/I360A/D361A) (C. elegans).
T10 sequence: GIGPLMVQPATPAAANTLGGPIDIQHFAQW
Described as above.

The target in assay [11] is T11, LIM-7LID P350A/L351A/M352A/H359A (C. elegans).
T11 sequence: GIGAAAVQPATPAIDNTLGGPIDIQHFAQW
Described as above.

Assay [12] concerns the target T12, LIM-7LID G347A/I348A/G349A (C. elegans).
T12 sequence: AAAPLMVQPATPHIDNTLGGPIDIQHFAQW
The description is as above.

Assay [13] deals with T13, LIM-7LID I368A/D369A/I370A (C. elegans).
T13 sequence: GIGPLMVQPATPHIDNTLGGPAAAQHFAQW
The assay is described as above.

Assay [14] has as its target T14, LIM-7LID P350A/L351A/M352A/I360A (C. elegans).
T14 sequence: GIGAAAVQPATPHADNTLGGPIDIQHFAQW
Described as above.

Assay [15] addresses T15, LIM-7(A374G/Q375A/W376A) (C. elegans).
T15 sequence: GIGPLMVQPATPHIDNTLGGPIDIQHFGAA
The description is as above.

For assay [16], the target named is T16, LIM-7LID L351A (C. elegans).
T16 sequence: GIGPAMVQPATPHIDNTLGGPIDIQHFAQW
Described as above.

Assay [17] concerns the target T17, LIM-7LID D361A (C. elegans).
T17 sequence: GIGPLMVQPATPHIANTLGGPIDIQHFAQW
The assay is described as above.

Assay [18] deals with T18, LIM-7LID P350A (C. elegans).
T18 sequence: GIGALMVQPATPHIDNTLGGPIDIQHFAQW
Described as above.

Assay [19] addresses T19, LIM-7LID A356G/T357A/P358A (C. elegans).
T19 sequence: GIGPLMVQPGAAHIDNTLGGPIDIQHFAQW
Described as above.

Assay [20] addresses T20, LIM-7LID H359A (C. elegans).
T20 sequence: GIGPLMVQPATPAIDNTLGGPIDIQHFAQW
The description is as above.

Assay [21] addresses T21, LIM-7LID N362A/T363A/L364A (C. elegans).
T21 sequence: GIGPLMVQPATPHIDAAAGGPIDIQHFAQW
The assay is described as above.

Assay [22] deals with T1, WT LIM-7LID (LIM interaction domain of LIM-7) (C. elegans). The assay is described as above.
Assay [23] has as its target T22, LIM-7LID Q371A/H372A/F373A (C. elegans).
T22 sequence: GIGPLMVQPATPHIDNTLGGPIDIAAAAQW
The assay is described as above.

Assay [24] deals with T23, LIM-7LID L351A/M352A (C. elegans).
T23 sequence: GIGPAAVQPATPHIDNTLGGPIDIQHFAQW
The description is as above.

B1: CEH-14_(LIM1+2) (tandem LIM domains of CEH-14) (domain or fragment, UniProt P20271 42-168)
chain: NNEEAICSLCDKKIRDRFVSKVNGRCYHSSCLRCSTCKDELGATCFLREDSMYCRAHFYKKFGTKCSSCNEGIVPDHVVRKASNHVYHVECFQCFICKRSLETGEEFYLIADDARLVCKDDYEQARD
B1: the binding entry in assay [1] is given as “binds”; in [2], “binds”; in assay [3], “binds”; in [4] it was “no binding”; in assay [5], “binds”; in [6] it was “binds”. For the same molecule, the binding entry in assay [7] is given as “binds”; in assay [8] it was “binds”; in assay [9], “binds”; in assay [10], “no binding”; in assay [11] it was “no binding”; in [12] it was “binds”. In addition, the binding entry in [13] is “binds”; in assay [14], “no binding”; in [15] it was “binds”; in assay [16], “binds”; in [17], “binds”; in [18], “binds”. Moreover, the binding result in [19], in assay [20], in assay [21], in [22], in assay [23] and in assay [24] was “binds” each time.
